About 200 (0.44%) of roughly 45,000 compounds were called active. Inconclusive results (about 7%) are left out. The call rests on the fitted dose curve; in most records, active means well fitted activation curve with a large enough effect; inconclusive means small, poorly fitted or top-dose-only effect; inactive means no such curve, though single readings can be large or run the other way. The list shows a part of the results.
Test: qHTS of TDP-43 Inhibitors: NCGC Sytravon Library Screen; further: nearly all actives have a fitted effect of over 55% in size; on growth rescue (activation): 0% is about no effect
Conditions: yeast TDP-43 toxicity rescue, BacTiter-Glo growth, 24 h; series mostly up to 46.1 µM; growth rescue (activation): at the top concentration
Procedure, shortened: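 TDP-43-expressing yeast, pregrown in raffinose, seeded at OD600 0.02 in galactose medium with compound for 24 hr at 30 deg C. Growth read by BacTiter-Glo luminescence, so rescue of toxicity appears as activation.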
Potency means the concentration at half of the fitted maximal effect.

Compound	growth rescue (activation)	Potency
CC(C)c1ccccc1NC(=O)CN1C(=O)c2ccccc2C1=O	inactive: 9.4%	
CCN(CC(=O)Nc1ccccc1OC)C(=O)CCc1ccccc1	inactive: 7.51%	
Cc1csc(CNC(=O)C2CCC(=O)N(CCc3cccc(F)c3)C2)n1 (stereo not drawn)	inactive: 16.6%	
Cc1ccc(S(=O)(=O)N2CCC(C(=O)N/N=C/c3cccn3C)CC2)cc1	inactive: 16.9%	
COc1ccc(NC(=O)c2c(C)nn(Cc3ccccc3)c2C)cc1S(=O)(=O)N(C)C	inactive: 9.7%	
O=C(COC(=O)C1CCCCC1)Nc1cccc(F)c1	inactive: 5.92%	
O=C(O)CCCCCNc1ncnc2ccc(Br)cc12	inactive: -9.64%	
CC(C)CCN(C(=O)c1ccccn1)c1c(N)n(Cc2ccccc2)c(=O)[nH]c1=O	inactive: -0.814%	
Cc1ccc(C(=O)N/C(=C/c2ccco2)C(=O)O)cc1	inactive: 2.03%	
Clc1ccccc1C1=CC(c2ccco2)n2nnnc2N1 (stereo not drawn)	inactive: 13.6%	
Cc1ccc(NC(=O)CSc2nnnn2-c2cccnc2)c(C)c1	inactive: 15.5%	
COC(=O)CSc1nc(N)nc(C)c1Cl	inactive: -1.16%	
O=C(Nc1ccc(Cl)cc1)c1csc([C@@H]2C[C@H](O)[C@@H](CO)O2)n1	inactive: -2%	
O=C(Cn1c(=O)sc2ccccc21)Nc1ccc(O)cc1	inactive: -6.86%	
COc1ccc(NC2=NCCC2)cc1	inactive: -8.91%	
CC(/C=N/n1c(-c2ccccn2)n[nH]c1=S)=C\c1ccccc1	inactive: 7.14%	
O=C(CNS(=O)(=O)c1ccc(Br)cc1)NC1CCCC1	inactive: 14.2%	
O=C(O)COc1ccccc1/C=N/NC(=O)CSc1nc2ccccc2n1Cc1ccccc1	inactive: 16.4%	
CCN(C(=O)COC(=O)C(Cc1ccccc1)N1C(=O)c2ccccc2C1=O)C1CCS(=O)(=O)C1 (stereo not drawn)	inactive: -3.55%	
COc1ccc(NC(=O)/C(C#N)=C/c2ccc3c(c2)n(C)c(=O)n3C)cc1	inactive: 4.01%	
Cc1nn(C)cc1/C=N/NC(=O)c1ccco1	inactive: 7.84%	
CN(C)c1ccc(C(C(=O)NCc2ccccc2)N(Cc2cccnc2)C(=O)c2snc(C(N)=O)c2N)cc1 (stereo not drawn)	inactive: -2.1%	

Compound	growth rescue (activation)	Potency
CC(C)Oc1cccc(C(=O)C2CCCN(C(=O)c3noc4c3CCCC4)C2)c1 (stereo not drawn)	inactive: 13.4%	
CCCCn1c(=O)[nH]c(=O)c2c1nc(-c1cc(Br)ccc1OC)n2C	inactive: 14.7%	
COc1ccc(-n2c(SCC(=O)O)nnc2-c2ccc(NC(=O)c3ccccc3)cc2)cc1	inactive: 13.4%	
Cc1ccccc1NC(=O)c1cc(C(=O)c2cc(Cl)ccc2O)cn(-c2ccccc2C)c1=O	inactive: 12%	
CC(C)c1c(O)nc(SCCOc2ccc(Cl)cc2)[nH]c1=O	inactive: 17.5%	
Cc1nc(SCC(=O)NNC(=O)c2cccs2)[nH]c(=O)c1C	inactive: 0.347%	
C(=N\c1nc2ccccc2n1CCN1CCOCC1)/c1cccs1	inactive: 17%	
CN1CCN(S(=O)(=O)c2ccc(NCc3ccc4c(c3)OCO4)nc2)CC1	inactive: 21.6%	
O=C(CSc1n[nH]c(-c2ccco2)n1)Nc1ccc(F)cc1	inactive: 4.77%	
O=C(NC1CCCCC1)c1ccccc1C(F)(F)F	inactive: 11.1%	
CC(C)Oc1ccc(CN2CCC2(C)C(=O)Nc2ccc(Cl)c(Cl)c2)cc1 (stereo not drawn)	inactive: 17.8%	
COc1cccc(-c2ocnc2C(=O)Nc2ccc3c(c2)CCC3)c1	inactive: 7.99%	
COc1ccccc1-n1cc(CN2CCN(CC(C)C)C(CCO)C2)cn1 (stereo not drawn)	inactive: 2.89%	
COc1ccc(S(=O)(=O)N[C@@H](Cc2ccc(Cl)cc2)C(=O)N2CC[C@@]3(O)CCCC[C@H]3C2)cc1	inactive: -15.5%	
CC(C)(C)NC(=O)NC(=O)CN1C(=O)NC(C)(c2ccccc2)C1=O (stereo not drawn)	inactive: -0.467%	
Cc1ccc(C(=O)NCCCNC(=O)c2ccc(C)nc2)cc1	inactive: 2.87%	
Cc1cc(NC(=O)c2ccc3c(c2)OCCO3)ccc1NC(=O)c1ccco1	inactive: -21.8%	
Cc1onc(-c2ccccc2Cl)c1C(=O)N1CCN(c2ccc(F)cc2)CC1	inactive: 4.88%	
COC(=O)c1sc2nc(-c3ccccc3)nc(N3CCN(C)CC3)c2c1C	inactive: 14.2%	
O=C(c1ccco1)N1CCN(C(=O)c2ccccc2NS(=O)(=O)c2ccc(F)cc2)CC1	inactive: -1.01%	
COc1ccc(C2(CCN=Cc3ccc(N(C)C)cc3)CCOC(C)(C)C2)cc1 (stereo not drawn)	inactive: 12.3%	
O=S(=O)(c1ccc(S(=O)(=O)N2CCC(O)CC2)cc1)N1CCCC1	inactive: 0.193%	

Compound	growth rescue (activation)	Potency
O=C(Nc1cc(Br)ccc1O)c1cc(-c2cccs2)on1	inactive: 5.99%	
Cc1cccc(NC(=O)c2cc3ccccc3nc2C)c1	inactive: 9.03%	
COc1ccccc1NC(=O)NC1CCS(=O)(=O)C1 (stereo not drawn)	inactive: -2.15%	
COc1ccc(NC(=O)C(C)N2C(=O)C3CC=C(Cl)CC3C2=O)cc1 (stereo not drawn)	inactive: -4.25%	
Cc1cc(C)nc(SCc2ccc(C(=O)N/N=C/c3ccncc3)cc2)n1	inactive: 2.9%	
CC(=O)c1ccc(S(=O)(=O)N(C)CCCC(=O)N(C)Cc2c(F)cccc2Cl)cc1	inactive: 5.94%	
CSc1ccccc1NC(=O)CN(C)CC(=O)Nc1cc(C)ccc1C	inactive: 11.7%	
O=C(/C=C/c1ccccc1)N/C(=C\c1ccco1)C(=O)O	inactive: -0.546%	
O=C(/C=C/c1cc([N+](=O)[O-])ccc1OC(F)F)Nc1ccc(OC(F)F)cc1	inactive: 17.1%	
CN(C)S(=O)(=O)c1cccc(COC(=O)c2cccnc2Cl)c1	inactive: 12.6%	
Cc1ccc(SC(CC(=O)c2ccc(C(C)(C)C)cc2)C(=O)O)cc1 (stereo not drawn)	inactive: -41.3%	
Fc1ccc(C2=CC(c3cccs3)n3nnnc3N2)cc1 (stereo not drawn)	inactive: 10.1%	
Cc1[nH]nc2c1C(c1ccco1)C(C#N)=C(N)O2 (stereo not drawn)	inactive: -1.41%	
Cc1ccc(-c2nn(CCC(=O)NC(C)C)c(=O)c3ccccc23)cc1	inactive: 3.59%	
COc1ccc(Br)cc1C(=O)Nc1ccc(C(=O)O)cc1		active: 4.47 µM
CCOc1ccc(CC(=O)OCc2cc(=O)n3cc(Br)ccc3n2)cc1	inactive: 21%	
COc1cc2c(cc1OC)CN(C(=O)CNS(=O)(=O)c1ccc(C)c(C)c1)CC2	inactive: 13.9%	
COc1ccccc1/C=C/C(=O)NNC(=O)c1cccs1	inactive: 4.34%	
COc1ccc(OC)c(S(=O)(=O)NC(=O)C2(C)CCN2C(=O)Cc2ccc(Cl)cc2Cl)c1 (stereo not drawn)	inactive: -9.63%	
CCCC(=O)N1CCCC(C(=O)c2cccc(OC(C)C)c2)C1 (stereo not drawn)	inactive: 8.21%	
CCOC(=O)Nc1sc(C)c(C)c1C(=O)OCC	inactive: -2.71%	
COc1ccccc1-c1cc2nc(NCCc3ccncc3)ccn2n1	inactive: 15.5%	

Compound	growth rescue (activation)	Potency
Cc1cc(C)cc(N(CC(=O)Nc2ccccc2-c2ccccc2)S(=O)(=O)c2ccccc2)c1	inactive: -7.76%	
COc1ccnc(Oc2ccc(F)cc2)c1-c1ncn[nH]1	inactive: -3.25%	
O=C(COc1ccccc1Cl)NCCNC(=O)c1cnccn1	inactive: -17.8%	
CNc1nc(CC(C)=O)ns1	inactive: -1.57%	
N#C/C(=C(/O)c1ccc(-c2cccc([N+](=O)[O-])c2)o1)c1nc2ccccc2s1	inactive: -13.5%	
COC(=O)COc1nc(C)c(Br)c(OC)n1	inactive: -0.921%	
C=CCN1C(=O)C(CC(=O)Nc2ccc(OC)cc2)SC1=Nc1ccc(S(N)(=O)=O)cc1 (stereo not drawn)	inactive: 10.8%	
COC(=O)C(CC(=O)c1ccc(Br)cc1)n1nc(C)cc1C (stereo not drawn)	inactive: -7.84%	
CC(=O)Nc1ccc(NC(=O)C(C)OC(=O)c2cccs2)cc1 (stereo not drawn)	inactive: 22.3%	
CC(=O)c1ccc(NC(=O)CN2CCCCCC2)cc1	inactive: -9.67%	
NC(=S)N/N=C/c1coc2ccc(Br)cc2c1=O	inactive: 25.9%	
COc1ccc(NC(=O)c2cc(-c3cc(Cl)ccc3O)n[nH]2)c(OC)c1	inactive: 4.47%	
Cc1ccc(CN(C)CC(=O)NC(C)c2ccccc2)cc1 (stereo not drawn)	inactive: -3.07%	
N/C(Cc1nc(-c2ccc(Br)cc2)cs1)=N\O	inactive: 14.3%	
Cc1ccc(NC(=O)n2ncc3c(C)cccc32)c(C)c1	inactive: -8.79%	
COc1cc(SC)ccc1C(=O)Nc1ccccn1	inactive: 27.9%	
COc1ccc(OC)c(N(C(=O)c2snc(C(N)=O)c2N)C(C(=O)NCc2ccccc2)c2ccc(O)cc2)c1 (stereo not drawn)	inactive: -2.84%	
CC(C)OC(=O)Cn1c(=O)oc2ccccc21	inactive: 3.08%	
CCOc1ccc(N(C(C)C(=O)Nc2cccnc2)S(C)(=O)=O)cc1 (stereo not drawn)	inactive: 0.397%	
O=C1C2CCCN2C(c2cccs2)N1c1ccc(F)cc1 (stereo not drawn)	inactive: 11.6%	
CCCNC(=O)c1cc(C2CCCN(C(=O)c3ccc4c(c3)CCO4)C2)on1 (stereo not drawn)	inactive: 7.41%	
Cc1ccc(S(=O)(=O)NCC(=O)N(CC(=O)NCc2ccco2)Cc2ccccc2)cc1	inactive: 14.8%	

Compound	growth rescue (activation)	Potency
Cn1c2ccccc2c(=O)c2c(=O)n(Cc3ccco3)c(COc3ccccc3)nc21	inactive: -15.2%	
O=c1c2ccccc2nc(/C=C/c2ccccc2)n1CCc1ccccc1	inactive: 0.538%	
COc1ccccc1/C=C/C(=O)NCC(=O)N/N=C(\CCC(=O)O)c1ccccc1	inactive: -15.8%	
Cc1ccc(N(C(=O)NC2CCCCC2)C2=NCCCCC2)cc1	inactive: 13.1%	
CCN1CCN(C(=O)c2cc3c(=O)n4ccccc4nc3s2)CC1	inactive: 0.923%	
CN1CCCN(S(=O)(=O)c2ccc3ccccc3c2)CC1	inactive: -0.437%	
O=C(Nc1cccn2nc(COCCO)nc12)C(c1ccccc1)c1ccccc1	inactive: 12.7%	
O=C(CN1CCN(Cc2ccc(Cl)cc2)CC1)N/N=C/c1c[nH]c2ccccc12	inactive: 0.728%	
O=c1c2[nH]c3ccc(Br)cc3c2ncn1Cc1ccncc1	inactive: -2.43%	
O=S(=O)(c1ccc(Cl)cc1)N1CCN(CCc2ccncc2)CC1	inactive: -6.16%	
c1ccc(-c2nc3c4ccccc4ccn3c2CN2CCCCC2)cc1	inactive: -2.23%	
O=C(Nc1cccc(Cl)c1)Nc1ccccc1NS(=O)(=O)c1cccs1	inactive: 3.73%	
COc1ccc2nc(C)cc(SCC(=O)N/N=C/c3ccc(O)c(O)c3)c2c1	inactive: 2.71%	
COc1ccc(NC(=O)C/C(C)=N/NC(=O)C(=O)Nc2cccc(Cl)c2C)c(OC)c1	inactive: 20.7%	
CCOCCCn1c(=N)c(S(=O)(=O)c2ccccc2)cc2c(=O)n3cc(C)ccc3nc21	inactive: 14.3%	
CC(=O)Nc1ccc(C(=O)OCc2ccc(F)cc2)cc1	inactive: 38.3%	
CC1(C(=O)NS(=O)(=O)c2ccc(C#N)cc2)CCN1C(=O)Cc1ccc(Cl)cc1Cl (stereo not drawn)	inactive: -0.628%	
Cc1cnc2c(C(=O)O)cnn2c1	inactive: 3.41%	
Cc1ccc(S(=O)(=O)N/N=C2/CC(=O)CC(C)(C)C2)cc1[N+](=O)[O-]	inactive: 0.338%	
CC(C)C(NS(=O)(=O)c1ccccc1)C(=O)OCC(=O)NNC(=O)c1ccccc1 (stereo not drawn)	inactive: 18.6%	
